Experimental findings from PubChem BioAssay AID463173 (ICCB-Longwood Screening Facility, Harvard Medical School, 2010) are described below.

About 1,700 (3.3%) of roughly 52,000 compounds were called active. No stated cut-off is given here; in the data, active means survival mostly below about 52% (no sharp cut-off); inactive means mostly above about 56%. This is one part of the list.

In the assay the test system is Wild type. As to the kind of experiment: S. aureus survival, RN4220 and DeltatarO strains – OD600, teichoic acid synthesis inhibitors, primary screen (AID 463173). Particulars: S. aureus RN4220 wild type/DeltatarO growth, OD600, 18 h, hits give low values; concentration not given here unless noted.
As to `c1cc2c(cc1CN1CCNCC1)OCO2`, the survival is inactive: 118%. Then `COc1ccc(CC2C(=O)N(C)C(=O)N(C)C2=O)cc1`, with inactive: 112%. Then `Cc1ccc(NC(=O)N(Cc2ccc3c(c2)OCO3)C2CCN(Cc3ccccc3)CC2)cc1Cl`, with inactive: 133%; and `CCOC(=O)C1=C(C)NC(C)=C2C(=O)Oc3ccccc3C12` (stereo not given), with inactive: 108%; and `c1cc(CN2CCNCC2)ccn1`, with inactive: 107%. The result for `N#Cc1cc2c(nc1SCC(=O)Nc1ccc(F)c(Cl)c1)C1CCN2CC1` reads active: -2%; that for `O=C(Nc1ccc(Br)cc1C(=O)c1ccccc1Cl)c1ccccc1F`, inactive: 76%; that for `COc1ccc(CCNCc2ccc3c(c2)n(C)c(=O)n3C)cc1`, inactive: 84%. `O=C1CC(c2ccc(F)cc2)c2c(c3ccccc3oc2=O)O1` (stereo not given): the survival was inactive: 67%. The result for `CCOC(=O)CC1=C(C(=O)OCC)C2(C(=O)N(C)c3ccccc32)C(C#N)=C(N)O1` (stereo not given) reads inactive: 83%.

In the case of `CN1C(=O)C(Cc2nc3ccccc3c(=O)n2-c2ccccc2)c2ccccc21` (stereo not given), the survival was inactive: 117%. Then `CCOc1ccc(NC(=O)c2cccn(Cc3cccc(Cl)c3)c2=O)cc1`, with inactive: 93%; and `COc1ccc(NC(=O)CCc2nc(C3=CCN(Cc4cccc(Cl)c4)CC3)no2)cc1OC`, with inactive: 76%. Take `Cc1oc(-c2ccccc2Cl)nc1CN1C(=O)CN=C(c2ccccc2)c2cc(Cl)ccc21`: the survival was inactive: 82%. The result for `CCCOc1ccc(CCN)cc1Cl` reads inactive: 107%. Then `CC(c1ccccc1F)n1cc(C(=O)NC2CCCC2)nn1` (stereo not given), with inactive: 103%.

Consider `Cc1ccc(-n2nc(C)c3c2NC(=O)CSC3c2ccc(O)cc2)cc1Cl` (stereo not given), for which the survival is inactive: 91%. On to `Clc1ccc(NCCN2CCCCCC2)nn1`, for which the survival was inactive: 126%. Consider `O=c1c2ccccc2nc(/C=C/c2ccccc2O)n1-c1ccc(Br)cc1`, for which the survival was inactive: 68%. On to `COC1=CC23CCN(C)C(Cc4ccc(OC)c(O)c42)C3=CC1=O` (stereo not given), for which the survival was inactive: 115%. The result for `CCCC12CN3CC(C)(CN(C1)C3c1ccccn1)C2=O` (stereo not given) reads inactive: 86%; that for `c1ccc2c(CCNC3CCNCC3)c[nH]c2c1`, inactive: 96%. `Cc1ccc(NC(=O)CN2C(=O)CN=C(c3ccccc3)c3ccccc32)c(C)c1`: the survival was inactive: 84%.

Take `O=C(c1ccc2c(c1)N(Cc1ccc(F)cc1Cl)C(=O)c1ccccc1S2)N1CCC2(CC1)OCCO2`: the survival was inactive: 78%. The result for `N=C1SCC(=O)N1Cc1ccccc1` reads inactive: 112%; that for `O=c1c2ccccc2nc(-c2ccco2)n1-c1nccs1`, inactive: 99%; that for `CC(C)OC12Oc3ccccc3C=C1N1CCC2CC1` (stereo not given), inactive: 105%. Then `CCCCc1nc2ccccc2c(=O)n1-c1cccc(OC)c1`, with inactive: 98%; and `Nc1c(C(=O)Nc2ccc(OC(F)(F)F)cc2)sc2nc3c(cc12)N1CCC3CC1`, with inactive: 167%.

As for `COc1cc(/C=C/c2nc3ccccc3c(=O)n2-c2ccc(Br)c(C)c2)ccc1O`, the survival is inactive: 74%. The result for `O=C(Nc1ccc2c(c1)OCCO2)c1cccn(Cc2cccc([N+](=O)[O-])c2)c1=O` reads inactive: 78%; that for `CC(C)NCc1ccc2c(c1)OCO2`, inactive: 101%. Then `N#Cc1cc([N+](=O)[O-])ccc1NC(=O)c1cccn(Cc2cccc(F)c2)c1=O`, with inactive: 124%; and `CSc1ccc(C(c2c(O)c3ccccc3oc2=O)c2c(C)n(C)n(-c3ccccc3)c2=O)cc1` (stereo not given), with inactive: 112%; and `CN1CCN(c2csc3ccc(F)cc3c2=O)CC1`, with inactive: 68%. The result for `CC12CCC3C(CCC4CC(N)CCC43C)C1CCC2O` (stereo not given) reads inactive: 122%. Regarding `N#Cc1cc2c(nc1SCC(=O)Nc1cccc(F)c1)C1CCN2CC1`, the survival is active: -3%.

As for `CCOc1ccc(-n2c(/C=C/c3ccccc3)nc3ccccc3c2=O)cc1`, the survival was inactive: 136%. The result for `CSc1nc2ccccc2c(=O)n1-c1ccccc1C` reads inactive: 107%. Take `O=C1CC(=O)N(c2ccccc2)C(=O)N1c1ccccc1`: the survival is inactive: 111%.

Consider `O=C(Nc1ccc2c(c1)OCO2)c1cccn(Cc2ccc(F)cc2)c1=O`, for which the survival was inactive: 59%. The result for `Cn1c(=O)n(C)c2cc(CNCCc3ccccc3)ccc21` reads inactive: 99%; that for `O=c1cccc2n1CC1CC2CN(c2ncnc3c2cnn3-c2ccc(Cl)cc2)C1` (stereo not given), inactive: 109%; that for `Cc1ccccc1Cn1cccc(C(=O)Nc2cc(Cl)ccc2C#N)c1=O`, inactive: 49%.

Regarding `O=C(Cc1ccccc1)Oc1cccc(-n2cnnn2)c1`, the survival is inactive: 120%. The result for `COC(=O)c1cn(Cc2ccccc2C#N)c2ccccc12` reads inactive: 111%; that for `Cn1cc(C=C(C#N)C#N)c2ccccc21`, inactive: 114%; that for `Cc1cc(NC(=O)c2cccn(Cc3cccc([N+](=O)[O-])c3)c2=O)no1`, inactive: 89%.

As for `CCOc1ccc(CC2(CCc3ccncc3)C(=O)NC(=O)NC2=O)cc1`, the survival is inactive: 96%. The result for `OCCCNc1c2c(nc3ccccc13)CCCC2` reads inactive: 99%; that for `N#CC(C#N)=Cc1ccc(-c2ccccc2)o1`, inactive: 123%.

In the case of `CCN1CCN(C(=O)COc2ccc(S(=O)(=O)N(C)Cc3ccccc3)cc2)CC1`, the survival is inactive: 90%.

For `CCOc1ccc2nc(NC(=O)c3cccn(Cc4ccccc4C)c3=O)sc2c1`, the survival is inactive: 73%. The result for `CCC(=O)N1CC(=O)Nc2ccc(C)cc2C1c1ccc(F)cc1` (stereo not given) reads inactive: 77%; that for `COc1ccc(CNCC(=O)N2CCC3(CC2)OCCO3)cc1`, inactive: 107%; that for `CCc1ccc(OCC(=O)N2CCN(CCc3ccccn3)CC2)cc1`, inactive: 83%.

Take `CC1CC(=O)C2CCCCC2N1` (stereo not given): the survival is inactive: 100%. On to `COc1ccc(-c2nc(CN3C(=O)CN=C(c4ccccc4)c4ccccc43)c(C)o2)cc1OC`, for which the survival is inactive: 96%. For the molecule `Cc1cc(N2CCNCC2)nc2ccccc12`, the survival was inactive: 94%. The result for `O=C1CN=C(c2ccccc2)c2cc(Cl)ccc2N1Cc1ccc(Cl)cc1` reads inactive: 50%; that for `COc1ccccc1-n1c(/C=C/c2ccccc2)nc2ccccc2c1=O`, inactive: 80%; that for `CN(C)C(=O)Oc1ccnc2cc(Cl)ccc12`, inactive: 108%. `COc1ccc(-c2nn3c(=O)cc(CN4CCN(C(=O)COc5ccc(F)cc5)CC4)nc3s2)cc1`: the survival was inactive: 68%. Then `CCC(C)c1c(O)[nH]c(=S)[nH]c1=O` (stereo not given), with inactive: 121%.

Consider `Cc1oc(-c2ccc(Cl)cc2)nc1CN1C(=O)CN=C(c2ccccc2)c2cc(Cl)ccc21`, for which the survival is inactive: 73%.
